# Data published in article PMC4336329 (PLoS ONE, 2015).
# Hit rate of the full screen: of about 310,000 compounds, about 2,200 (0.71%) showed an effect of 50% or more. The effect is printed as a negative number. Some of the results follow.
# Molecular target: human ether-à-go-go-related gene (hERG) potassium channel (human, UniProt Q12809)
# Test: primary screen, population patch clamp on CHO cells stably expressing hERG
# Sequence of human ether-à-go-go-related gene (hERG) potassium channel (Q12809 whole entry, looked up): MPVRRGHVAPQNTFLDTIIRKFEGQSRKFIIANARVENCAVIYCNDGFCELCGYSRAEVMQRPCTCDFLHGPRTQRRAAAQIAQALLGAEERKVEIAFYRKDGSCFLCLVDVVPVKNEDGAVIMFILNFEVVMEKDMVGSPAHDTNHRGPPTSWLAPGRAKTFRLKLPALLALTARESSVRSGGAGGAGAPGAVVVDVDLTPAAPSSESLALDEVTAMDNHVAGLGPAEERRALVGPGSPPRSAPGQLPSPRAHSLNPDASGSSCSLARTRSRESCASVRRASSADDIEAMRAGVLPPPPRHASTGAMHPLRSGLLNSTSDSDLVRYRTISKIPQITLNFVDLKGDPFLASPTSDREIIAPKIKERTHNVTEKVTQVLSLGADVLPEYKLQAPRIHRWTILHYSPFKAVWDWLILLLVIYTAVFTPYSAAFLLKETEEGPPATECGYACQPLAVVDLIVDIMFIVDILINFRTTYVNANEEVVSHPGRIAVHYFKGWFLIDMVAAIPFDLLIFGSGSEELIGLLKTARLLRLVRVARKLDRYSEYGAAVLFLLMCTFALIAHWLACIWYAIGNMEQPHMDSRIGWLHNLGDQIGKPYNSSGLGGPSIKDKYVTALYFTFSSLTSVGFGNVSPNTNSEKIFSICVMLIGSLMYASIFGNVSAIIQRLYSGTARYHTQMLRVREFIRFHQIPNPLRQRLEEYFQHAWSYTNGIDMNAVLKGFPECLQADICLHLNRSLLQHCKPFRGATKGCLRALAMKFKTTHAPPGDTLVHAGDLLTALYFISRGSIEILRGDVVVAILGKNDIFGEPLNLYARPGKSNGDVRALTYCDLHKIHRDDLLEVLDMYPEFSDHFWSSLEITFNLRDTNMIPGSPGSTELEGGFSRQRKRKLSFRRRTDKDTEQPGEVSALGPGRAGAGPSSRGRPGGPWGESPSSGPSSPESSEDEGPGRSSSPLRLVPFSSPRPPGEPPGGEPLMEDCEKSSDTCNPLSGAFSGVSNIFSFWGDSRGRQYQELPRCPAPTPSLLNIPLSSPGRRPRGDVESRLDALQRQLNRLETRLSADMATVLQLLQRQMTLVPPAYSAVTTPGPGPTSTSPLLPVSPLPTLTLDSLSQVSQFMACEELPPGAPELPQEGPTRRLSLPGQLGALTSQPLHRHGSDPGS
row,SMILES,"hERG current change (%, negative = inhibition) at 1uM [%]"
1,CSc1ccccc1C(=O)NCc1ccc(C)cc1,9.27
2,COc1cc(OC)c(C(=O)OCN2C(=O)c3ccccc3C2=O)cc1OC,-10.6
3,CC(=O)Nc1ccc(S(=O)(=O)NCC(=O)OCc2ccccc2)cc1,15.4
4,Cn1c(NCCO)nc2c1c(=O)n(Cc1ccc(F)cc1)c(=O)n2C,9
5,CC(C)CCNC(=O)C(=O)Nc1ccc2c(c1)N(S(=O)(=O)c1cccs1)CCC2,17.1
6,CCc1c(C(=O)O)[nH]c2ccc(Br)cc12,5.08
7,c1ccc(COc2ccc(CNn3cnnc3)cc2)cc1,15.3
8,O=C1c2cccc3cccc(c23)C(=O)N1CCCc1n[nH]c(=S)n1-c1ccccc1,16.2
9,COc1ccc(NCN2C(=O)C3C4C=CC(C4)C3C2=O)cc1 (centres unmarked),13.6
10,O=c1ccc(/C=C/c2ccccc2)nn1Cc1ccccc1Cl,5.58
11,COc1cccc(Nc2ncccc2C(=O)O)c1,10.8
12,COc1cc(OC)c(/C=N/n2c(C3CCCCC3)n[nH]c2=S)c(OC)c1,6.28
13,CC(NC(=O)CCC(=O)c1ccc(F)cc1)C1CC2CCC1C2 (centres unmarked),5.64
14,O=C(COc1ccc2c(c1)CCC2)N1CCc2ccccc21,8.08
15,CNc1c(C(=O)O)ccc2c1C(=O)c1ccccc1C2=O,4.93
16,CCOc1ccc(S(=O)(=O)Nc2cc(C)ccn2)c2ccccc12,7.64
17,CC(NC(=O)CNC(=O)Cc1cccc2ccccc12)c1ccc(S(N)(=O)=O)cc1 (centres unmarked),8.87
18,COc1ccc(/C(O)=C2/C(=O)C(=O)N(CCN(C)C)C2c2ccccc2)cc1Cl (centres unmarked),9.27
19,N#Cc1ccccc1NC(=O)C(=O)NCCCN1CCCC1=O,2.74

row,SMILES,"hERG current change (%, negative = inhibition) at 1uM [%]"
1,Cn1ncc(C#N)c1/N=C/N(Cc1ccccc1)Cc1ccccc1,-4.89
2,CCCc1cc(=O)[nH]c(SCCCCN2C(=O)c3ccccc3C2=O)n1,7.6
3,COc1ccc(NC(=O)CN(C)C(=O)c2c(C)nn(-c3ccccc3)c2Cl)cc1,16.4
4,Cc1cccc(Oc2ncnc3oc(-c4ccccc4)cc23)c1C,3.29
5,Cc1coc2cc3oc(=O)c(CCC(=O)N4CCC(C(=O)O)(c5ccccc5)CC4)c(C)c3cc12,1.45
6,O=C(Cn1cc(C(F)(F)F)cc(Cl)c1=O)Nc1cc(S(=O)(=O)N2CCOCC2)ccc1Cl,12
7,CC[C@@H]1CN(C)[C@H]2Cc3c([nH]c4ccccc34)C(=O)C[C@@H]1[C@@H]2C(=O)OC,11.8
8,COC(=O)[C@]1(Cc2ccccc2)N[C@H](c2ccc(-c3ccccc3)cc2)[C@@H]2C(=O)N(C)C(=O)[C@@H]21.O=C(O)C(F)(F)F,11.1
9,Cc1cccc(N=c2oc3cc(O)ccc3cc2C(N)=O)c1,4.26
10,O=C(NCc1ccccc1F)C1CCCN1S(=O)(=O)c1ccc(Cl)cc1 (centres unmarked),7.77
11,COc1ccc(C)cc1S(=O)(=O)N(C)CC(=O)NC1CC1,12.8
12,Nc1c(-c2ccc(Cl)cc2)cnc2c(-c3ccc(F)cc3)cnn12,16.8
13,Cc1ccccc1OCCCCCn1ccnc1,2.95
14,O=C1CCC(=O)N1c1nc2n(n1)C(c1ccccc1)C=C(c1ccc(Br)cc1)N2 (centres unmarked),-0.468
15,CCN(CC)c1nc2c(C)cccn2c(=O)c1C=C1C(=O)NC(=O)NC1=O,14.5
16,CC(C)(C)n1nc2c(c1NC(=O)c1cccc(C(F)(F)F)c1)CS(=O)C2 (centres unmarked),1.06
17,COc1ccc(C(=O)Nc2ccc3cn[nH]c3c2)c(OC)c1,16.6
18,Oc1[nH]c2ccccc2c1N=Nc1nncc2ccccc12,14.2
19,COC(=O)NNC(=O)c1ccc(Cl)cc1Cl,14.6

row,SMILES,"hERG current change (%, negative = inhibition) at 1uM [%]"
1,Cc1nc(C)n(CCNC(=O)c2ccco2)n1,22.3
2,O=P(Nc1cccnc1)(Oc1ccccc1)Oc1ccccc1,9.77
3,CCN(CC)S(=O)(=O)c1ccc(C)c(NC(=S)Nc2cccc(S(=O)(=O)N3CCCCCC3)c2)c1,4.26
4,CC(=C/c1ccccc1)/C=N/NC(=O)CSc1nc(C)cc(C)n1,7.47
5,O=C(Nc1ccc(NC(=O)C2CC2)cn1)c1ccccc1,15.2
6,CC[C@@H](C)[C@H](CN[C@H](CNC)C(C)C)NC[C@@H](C)c1ccc(CC(C)C)cc1,2.83
7,N=c1c(C(=O)NC2CCCCC2)cc2c(=O)n3ccccc3nc2n1Cc1ccco1,-59.1
8,COc1ccc(/C=C2\CCCC3C2=NN(C(=O)c2ccco2)C3c2ccc(OC)c(OC)c2)cc1OC (centres unmarked),-3.14
9,COc1cc2c(cc1OC)-c1cc(NC3CC3)nc(=O)n1CC2,-1.53
10,CCC1(C)OC(=O)N(CCCn2ccnc2C)C1(C)O (centres unmarked),-13.9
11,Cc1cccc(N2CCN(Cc3cn(C)nc3-c3ccccc3F)CC2)n1,-7.34
12,CC(=O)NCCC(=O)Nc1cc(S(=O)(=O)N2CCOCC2)ccc1N1CCOCC1,15.2
13,N/C(=N\OC(=O)c1ccc(Cl)cc1Cl)c1ccccc1,-0.32
14,c1ccc(-c2ccnc3nc(N4CCN(c5ccccc5)CC4)nn23)cc1,3.29
15,CC1CN(C(=O)CCC(=O)NCCCc2ccccc2)c2ccccc2O1 (centres unmarked),-15.5
16,Nc1nccc(/C=C/c2c(Cl)cccc2Cl)n1,10.7
17,Cc1c(N2C(=O)/C(=C3/C(=O)N(C)c4ccccc43)SC2=S)c(=O)n(-c2ccccc2)n1C,10.3
18,CCOC(=O)c1nccnc1C(=O)Nc1cccc(C(F)(F)F)c1,4.52
